# Source: PubChem BioAssay AID651820 (National Center for Advancing Translational Sciences (NCATS), 2012)
# “And” between values parts separate entries of the source, which are not always exact repeats. Identical values can stand only once. In all, about 340,000 compounds went through this assay and about 12,000 (3.5%) were called active. The shares of active, inactive and inconclusive entries below differ from those in the screen. The call rests on the fitted dose curve; in most records, active means well fitted inhibition curve with a large enough effect; inconclusive means small, poorly fitted or top-dose-only effect, or another doubt; inactive means no such curve, though single readings can be large or run the other way. Potencies beside an inconclusive call are fits to weak or partial responses and may not hold up.
# Test: qHTS Assay for Inhibitors of Hepatitis C Virus (HCV)
# Conditions: Huh7.5.1 HCVcc-Cre (HCVcc is cell-culture hepatitis C virus) infection, luciferase reporter, 44 h; series mostly up to 41.8 µM
# Method in brief: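 Whole-lifecycle infectious HCVcc-Cre system; cells 1,000/well, compound then virus (~0.5 moi) added 4 h after plating, 44 h culture. Luciferase read 15 sec following 15 min substrate incubation, room temp.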
# Potency means the concentration at half of the fitted maximal effect; tags describe the fitted curve by direction and shape.
row,Compound,Potency
1,CC(C)=CCC[C@](C)(O)C1CC[C@]2(C)C1C(O)CC1[C@@]3(C)CCC(O)C(C)(C)C3C(O[C@@H]3OC(CO)C(O)C(O)C3O[C@@H]3OC(C)C(O)C(O)C3O)C[C@]12C (some centres not stated),"inconclusive: 2.82 µM [inhibitor, single point]"
2,COc1ccccc1CN1CC(C(=O)NCc2ccc(C)c(F)c2)CCC1=O (configuration not stated),inactive
3,CSc1cccc(NC(=O)/C=C/c2ccccc2)c1,"inconclusive: 28.2 µM [inhibitor, single point]"
4,COC(=O)Cc1ccc(NC(=O)c2cccs2)cc1,inactive
5,S=C(Nc1ccc(Nc2ccccc2)cc1)NC1CCCCCC1,"inconclusive: 11.2 µM [inhibitor, partial curve]"
6,O=C(c1ccc(Cl)c(S(=O)(=O)N2CCCCCC2)c1)N1CCN(c2ccccc2O)CC1,"inconclusive: 11.2 µM [inhibitor, partial curve]"
7,CCOC(=O)c1c(C)[nH]c(C(=O)N/N=C/c2ccc(Br)cc2)c1C,"inconclusive: 0.708 µM [inhibitor, full curve]"
8,COc1ccc(CCNC(=O)C(=O)NCC2CCCN2S(=O)(=O)c2ccc(OC)cc2)cc1 (configuration not stated),"inconclusive: 12.6 µM [inhibitor, single point]"
9,Fc1cccc(C[n+]2csc3ccccc32)c1,inactive
10,COc1cc2c(C(=O)N3CCN(c4cccc(Cl)c4)CC3)cn(CC(C)C)c(=O)c2cc1OC,"inconclusive: 2.82 µM [inhibitor, single point]"
11,COc1cc(-c2nc(CN3CCCN(C(=O)c4ccco4)CC3)c(C)o2)ccc1F,"inconclusive: 8.91 µM [inhibitor, partial curve]"
12,CCOC(=O)c1c(C=O)c2ccccc2n1Cc1ccccc1,"inconclusive: 14.1 µM [inhibitor, single point]"
13,CC(=O)c1c(C)[nH]c(C2=NNC(=NCc3ccccc3)SC2)c1C,inactive
14,CSc1nsc(/C=C/Nc2ccc(O)cc2C)c1C#N,"inconclusive: 10 µM [inhibitor, partial curve]"
15,O=S(=O)(Nc1cccc2ccccc12)c1ccccc1,inactive
16,COc1ccc(OC)c(NC(=O)Cn2cc(C#N)c3cc(Br)ccc32)c1,"inconclusive: 5.62 µM [inhibitor, single point]"
17,Cc1cc(NC(=O)COC(=O)c2c(C)c(C)c(C)c(C)c2C)no1,"inconclusive: 0.562 µM [inhibitor, full curve, poor fit]"
18,CCC(c1nnc(SCC(=O)Nc2ccc(C(=O)Nc3ccccc3OC)cc2)o1)N(C)C (configuration not stated),"inconclusive: 10 µM [inhibitor, partial curve] and inconclusive: 31.6 µM [inhibitor, partial curve, poor fit]"
19,CCOC(=O)c1ccc(NC(=S)N2CCN(c3ccc(N4CCOCC4)nn3)CC2)cc1,"inconclusive: 3.16 µM [inhibitor, full curve, poor fit]"
20,CN(C)CCn1c2c(c(SCC(=O)Nc3cccc(C(F)(F)F)c3)nc1=O)CCCC2,"inconclusive: 11.2 µM [inhibitor, single point]"
21,O=S(=O)(N/N=C/c1ccccc1OCc1ccc(Cl)cc1)c1ccccc1,"inconclusive: 31.6 µM [inhibitor, single point]"
22,CCN(CC)CCNCc1ccc(-c2ccc(Cl)cc2)o1,"inconclusive: 7.94 µM [inhibitor, partial curve]"
23,O=C(NCCc1c[nH]c2ccccc12)C(=O)NCC1OCCCN1S(=O)(=O)c1ccc(F)cc1 (configuration not stated),"inconclusive: 12.6 µM [inhibitor, partial curve]"

row,Compound,Potency
1,COc1ccc(C(=O)c2c[nH]c3ccccc23)cc1,"inconclusive: 12.6 µM [inhibitor, partial curve]"
2,O=C(OCc1ccc(Br)cc1F)c1cc2ccccc2oc1=O,inactive
3,COCCCNC(=O)CSc1nc2ccccc2c(=O)n1CCC(=O)NCCc1ccc(OC)c(OC)c1,"inconclusive: 14.1 µM [inhibitor, single point]"
4,CCc1ccccc1NC(=O)CN(C)Cc1c(O)ccc2ccccc12,inactive
5,Cc1cc(=O)oc2cc(OCC(=O)OCC(=O)NC3CC3)ccc12,inactive
6,OCCN1CCN(Cc2cccc(Oc3ccc(Cl)cc3)c2)CC1,active: 11.2 µM
7,CCCn1c(SCC(=O)N2CCN(S(=O)(=O)c3ccc(Cl)cc3)CC2)n[nH]c1=O,inactive
8,COc1cc2c(cc1OC)C(c1cc(Br)ccc1F)N(C(=O)CCl)CC2 (configuration not stated),"inconclusive: 31.6 µM [inhibitor, single point]"
9,CC/C(=N\NC(=O)c1ccc(CN(C)S(=O)(=O)c2ccc(C)cc2)cc1)c1ccc(OC(F)F)cc1,"inconclusive: 1.26 µM [inhibitor, full curve]"
10,CC(C)c1nnc(NC(=O)C2CCN(S(=O)(=O)c3ccc(-n4cnnn4)cc3)CC2)s1,"inconclusive: 11.2 µM [inhibitor, single point]"
11,COc1cc(OC)c(N(C)S(=O)(=O)c2cccc(C(=O)OCc3c(C)noc3C)c2)cc1Cl,"inconclusive: 1.78 µM [inhibitor, full curve]"
12,CCC1CCCCN1C(=O)COc1ccc(N(C)S(=O)(=O)c2ccc(C)cc2)cc1 (configuration not stated),active: 10 µM
13,CCCCCCN=C1CC(C)(C)CC(=O)/C1=C(/O)CCC,"inconclusive: 14.1 µM [inhibitor, single point]"
14,CCN(CC(=O)Nc1c(F)cccc1F)C(=O)Cc1csc(-c2ccccc2)n1,"inconclusive: 0.501 µM [inhibitor, full curve, poor fit]"
15,CCCN1CCC(=NNc2ccc(S(=O)(=O)N3CCOCC3)cc2[N+](=O)[O-])CC1,"inconclusive: 31.6 µM [inhibitor, single point]"
16,CCCN(CCC)C(=O)Nc1cc(Cl)ccc1OC,inactive
17,CC(C)(C)c1ccc(NC(=S)NCc2cccnc2)cc1,active: 31.6 µM
18,Cc1ccc(NC(=O)c2cc(-c3ccccc3)nn2-c2ccccc2)c(Br)c1,"inconclusive: 3.55 µM [inhibitor, single point]"
19,O=C(Nc1ccccc1C(=O)N1CCCCC1)c1ccc(Cl)cc1Cl,inactive
20,O=C(Nc1cccc(-c2cccc(Cl)c2)c1)C1CCN(C2CCC2)CC1,active: 12.6 µM
21,c1ccc(-c2nc3ccccc3c3nncn23)cc1,"inconclusive: 14.1 µM [inhibitor, single point]"
22,CCOc1ccc(C(=O)NCC(=O)NCC(c2ccco2)N2CCCCC2)cc1 (configuration not stated),inactive
23,O=C(NCc1ccco1)c1ccc(COc2cccc3ccccc23)cc1,"inconclusive: 11.2 µM [inhibitor, partial curve]"

row,Compound,Potency
1,Fc1ccccc1Nc1nc(-c2ccncc2)nc2ccccc12,active: 2.24 µM
2,CN1CCC(=O)N([C@H](CSc2ccc(Br)cc2)c2ccccc2)CC1,inactive
3,COC(=O)CSc1nc2ccccc2n1CC(=O)N(C(C)C)C(C)C,"inconclusive: 0.891 µM [inhibitor, full curve]"
4,OC(COCC1COc2ccccc2O1)CN1CCN(c2ccccc2F)CC1 (configuration not stated),inactive
5,COc1cc(NC(=O)COc2ccccc2[N+](=O)[O-])ccc1NC(=O)c1cccs1,"inconclusive: 12.6 µM [inhibitor, partial curve]"
6,COc1ccc2c(c1)[C@H]1[C@H](CO2)[C@H](c2ccccc2)[C@]2(C)C(=O)Nc3ccc(Br)cc3C(=O)N12,"inconclusive: 8.91 µM [inhibitor, single point]"
7,Nc1cc(C(Cl)=C(Cl)Cl)c(S(N)(=O)=O)cc1S(N)(=O)=O,"inconclusive: 1.41 µM [inhibitor, full curve, poor fit]"
8,Cc1ccc(S(=O)(=O)Nc2cc3c(C(=O)Nc4ccccc4)c(C)oc3c3ccccc23)cc1,"inconclusive: 8.91 µM [inhibitor, partial curve]"
9,COc1ccc(-n2c(=S)[nH]c3cc(C(=O)NCc4ccc(F)cc4)ccc3c2=O)c(OC)c1,"inconclusive: 31.6 µM [inhibitor, single point]"
10,COc1ccc(CCN(C)CCCC(C#N)(c2cc(OC)c(OC)c(OC)c2)C(C)C)cc1OC (configuration not stated),"inconclusive: 0.562 µM [inhibitor, full curve, poor fit]"
11,COc1ccc(Cl)cc1S(=O)(=O)N1CCC(C(=O)NC2CCCC2)CC1,inactive
12,O=C(Nc1ccc(F)cc1)c1ccc(S(=O)(=O)NCc2cccnc2)cc1,"inconclusive: 12.6 µM [inhibitor, single point]"
13,CC(C)(C)OC(=O)N[C@H](C(=O)OC(C)(C)C)c1ccc(Br)cc1,inactive
14,COc1ccc(N=Cc2oc3ccc4ccccc4c3c2O)cc1,inactive
15,CCc1nc(Cl)c(C#N)c2c1CCCC2,"inconclusive: 35.5 µM [inhibitor, single point]"
16,O=C(c1ccc(S(=O)(=O)N2CCOCC2)cc1)N1CCN=C1SCc1cccnc1,"inconclusive: 31.6 µM [inhibitor, single point]"
17,CC(=O)N1C(=O)C(=C2C=C(C)OC(C)=C2)c2ccccc21,active: 10 µM
18,CC(Sc1nc2cc([N+](=O)[O-])ccc2n1-c1ccc(F)cc1)C(=O)NCc1ccc2c(c1)OCO2 (configuration not stated),"inconclusive: 1.12 µM [inhibitor, full curve, poor fit]"
19,CC(C)Cn1c(=O)c2ccccc2n2c(CCC(=O)NC3CCN(Cc4ccccc4)CC3)nnc12,"inconclusive: 5.62 µM [inhibitor, partial curve]"
20,Fc1ccc(-c2cc3nc(-c4ccccc4)cc(N4CCN(CCN5CCOCC5)CC4)n3n2)cc1,active: 10 µM
21,CCOc1ccccc1NC(=O)C1CCCCN1S(=O)(=O)c1ccccc1 (configuration not stated),"inconclusive: 4.47 µM [inhibitor, full curve]"
